Among all 50,000 compounds or so, about 800 (1.6%) showed an effect of 50% or more. This is one part of the list.
Each compound was assayed against Bcl-2-like protein 10 (Homo sapiens) (UniProt Q9HD36) (assay: Phenotype converters, Bcl-B/TR3 peptide binding displacement, primary biochemical FP (AID 1240;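 further: 0% = Bcl-B with tracer peptide and DMSO and 100% = tracer peptide lacking Bcl-B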)). Conditions: GST-Bcl-B / FITC-TR3 peptide fluorescence polarization; stronger effect = higher value; compound at 3.75 mg/L.
Sequence of UniProt Q9HD36 (Q9HD36 whole entry, looked up): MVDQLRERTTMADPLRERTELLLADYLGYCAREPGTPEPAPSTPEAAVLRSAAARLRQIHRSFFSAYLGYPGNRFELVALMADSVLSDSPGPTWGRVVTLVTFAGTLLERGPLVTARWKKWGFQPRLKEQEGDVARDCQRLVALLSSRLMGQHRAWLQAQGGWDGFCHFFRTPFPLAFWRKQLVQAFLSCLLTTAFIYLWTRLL
For `CCOC(=O)c1c(-c2ccc(OC)cc2)csc1NC(=O)C1CCCCC1C(=O)O` (configuration not stated), the displacement was -7.2%.
For `CCOc1ccc(NC(=O)C2=C(C)NC(=O)NC2c2cc(OC)ccc2OC)cc1` (configuration not stated), the displacement was 15.9%.
Compound `COc1ccc(/C=C2/SC(=S)N(CCCC(=O)OCCN(C)C)C2=O)cc1` has a displacement of -0.9%.
For `CC1C(c2ccccc2)N(C)C(c2ccccc2)CC1(O)Cc1ccccc1` (configuration not stated), the displacement was 5.6%.
For `C(=NCCc1ccccc1)c1ccc(OC2CSC2)cc1`, the displacement was -9.8%.
For `COc1ccc(C2CC(=O)C3=C(C2)Nc2ccccc2NC3c2cccc(C)c2)cc1` (configuration not stated), the displacement was -3.9%.
`Cc1cc2c(cc1C)NC(CC(=O)Nc1ccc(F)cc1)C(=O)N2` (configuration not stated) was tested, and the displacement was -7.9%.
In the case of `CCOc1cccc(C(=O)Nc2nnc(CSCc3ccccc3)s2)c1`, the displacement is reported as -1.4%.
With `c1coc(CN2CCN(Cc3ccc4c(c3)OCO4)CC2)c1` the displacement was -4.2%.
With `Cc1cccc(NC(=O)CSC(N)=O)c1C` the displacement was -3.9%.
Compound `CCN(CC)c1ccc(/C=N/Nc2ccccc2[N+](=O)[O-])c(O)c1` has a displacement of -1.7%.
In the case of `C=CCC(C(=O)c1ccccc1)C(=O)C(C)(C)OC` (configuration not stated), the displacement is reported as 4.9%.
`O=C(COc1ccc(Br)cc1)Nc1ccc(Cl)cc1Cl` was tested, and the displacement was 7.1%.
`CCOC(=O)Oc1ccc2c(=O)c(-c3ccccc3OC)coc2c1` showed a displacement of 14.5%.
Work on `O=C(Cc1ccc(Cl)cc1)Nc1ccc2c(c1)OCCO2` yielded a displacement of 0.4%.
With `Cc1sc(NN=C2CCCC2)nc1-c1ccccc1` the displacement was -27.4%.
Compound `O=C1NC(=S)S/C1=C/c1cc(Cl)ccc1OCc1ccccc1` has a displacement of -15.6%.
Compound `CCN(c1ccccc1)S(=O)(=O)c1ccc(F)cc1` has a displacement of -6.1%.
Work on `Cc1ccc(CO/N=C(\N)c2nonc2N)c(C)c1` yielded a displacement of 10.6%.
`COc1cc(/C=C2\C(=O)N(c3ccc(S(N)(=O)=O)cc3)N=C2C)cc(I)c1O` showed a displacement of 11%.
With `Cc1ccc(NC(=O)C(c2ccccc2)c2ccccc2)cc1` the displacement was -6.3%.
`Cc1occc1C(=O)Nc1sc2c(c1C#N)CCC(C)C2` (configuration not stated) showed a displacement of 47.3%.
Work on `COc1cc(/C=N/N2C(=O)CSC2=S)cc(Cl)c1OCCOc1ccc(Br)cc1` yielded a displacement of 12.9%.
With `COC(=O)C1=C(C)NC2=C(C(=O)CCC2)C1c1cccc(F)c1` (configuration not stated) the displacement was 8.9%.
`CC(C)OC(=O)C(C)Sc1n[nH]c(=O)[nH]c1=O` (configuration not stated) was tested, and the displacement was 1.6%.
`CCc1cc(C(=O)N/N=C/c2ccccc2)c2ccccc2n1` was tested, and the displacement was -6.7%.
Work on `O=C(COc1ccccc1)Nc1ccc(S(=O)(=O)N2CCOCC2)cc1` yielded a displacement of 0.4%.
`CC(=O)Nc1ccc(NC(=O)Cc2ccc(Cl)cc2)cc1` gave a displacement of -13%.
For `CCCCc1nc2ccccc2c(NC(=O)CN2CCOCC2)c1CCC`, the displacement was -9.5%.
Work on `CC(C)Cc1ccc(/C(CCCC(=O)O)=N\O)s1` yielded a displacement of 4.5%.
`CCOC(=O)C(CC(C)C)NC(=O)/C(=C\c1ccccc1F)NC(=O)c1ccccc1` (configuration not stated) gave a displacement of 14.5%.
`O=C(CSc1nc2ccccc2[nH]1)N/N=C/c1ccccc1Br` was tested, and the displacement was 5.9%.

From PubChem BioAssay AID1240 (Sanford-Burnham Center for Chemical Genomics, 2008)
